Assay results taken from the supplement of paper PMC3334620.
In all, about 33,000 sequences were measured (“E-score (-0.5 to 0.5)”: median about -0.054, highest 2% from about 0.39 on). Some of the results follow.

target: Ylr278c (UniProt Q05854); test: PBM E-score (8-mer binding enrichment) (E-score (-0.5 to 0.5)); higher = stronger / more preferred TF binding; most listed sequences are background and not binding sites; settings: protein concentration: 200 nM; construct: GST-DNA-binding domain
Outline: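 Each ungapped eight-base word and its reverse complement, pooled, received an E-score from the Universal PBM Analysis Suite. Underlying scans, normalised with masliner, recorded fluorescent anti-GST bound to GST-tagged yeast transcription factors. These were applied at about 100-200 nM to universal all-10-mer Agilent arrays double-stranded by primer extension.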

Row | Sequence | PBM E-score
1 | CTTCGAGC | 0.197
2 | AAAATCTC | -0.109
3 | CTGACCAC | -0.167
4 | GCCAAGAC | -0.173
5 | ATTCGCCA | -0.0788
6 | AGAGCAGG | -0.15
7 | TATCGAGA | -0.189
8 | CCCAGGGG | -0.172
9 | ACAAGACT | -0.21
10 | GGTAGCCA | -0.186
11 | GGTTGCGA | -0.00595
12 | CGGGGTTA | 0.437
13 | AAGTTGCG | 0.135
14 | AATGTTGC | -0.0969
15 | ATAGCAAT | -0.0301
16 | CCCGCTCC | 0.197
17 | CAGGCACG | 0.0257
18 | AGATTGGC | -0.0621
19 | AAGGCCGC | 0.188
20 | CTTGATTA | -0.0445
21 | CTATATCA | -0.0773
22 | GGTGGACA | 0.113
23 | AAATTCGG | 0.282
24 | ATAGAGTG | -0.0286
25 | ACGTTCGA | -0.254

Row | Sequence | PBM E-score
26 | AAAATGTA | -0.0708
27 | ATGACCAG | -0.212
28 | AGATGAAC | 0.0555
29 | TAGGGAAA | 0.0311
30 | CTGTGTAA | -0.19
31 | AATCATAT | -0.126
32 | CAGGATAC | -0.171
33 | CTTTCATA | -0.103
34 | AAGCCTCC | 0.0849
35 | GTGACAAC | -0.0332
36 | GCTAGAGA | -0.175
37 | AAAATAGG | 0.0857
38 | CCGGCGCC | 0.422
39 | GAGATGAA | 0.073
40 | GAAAGACC | -0.0525
41 | CGACTCTC | -0.0349
42 | ACGGTTCG | 0.116
43 | GACGTTAA | -0.017
44 | TCAACTAA | -0.103
45 | ACGATAGG | -0.0767
46 | AGAGTAAC | 0.0213
47 | GTCTGGCA | 0.00936
48 | AACTTAGG | -0.156
49 | TGTTCAAA | -0.103
50 | AGGTGTCA | -0.0131

Row | Sequence | PBM E-score
51 | GGGTGCGA | 0.0646
52 | CCATACAA | -0.208
53 | AAAAATCA | -0.00065
54 | GTTCAGGA | -0.0137
55 | CCGAAAAA | 0.337
56 | GAGACGAC | 0.00276
57 | CAAATTAC | -0.00326
58 | CTTAGGAA | -0.0471
59 | ACCCGAAG | -0.0444
60 | CACTTTCC | 0.162
61 | GCGTTAGC | -0.167
62 | TGTGTAAA | 0.0194
63 | ACCGTAGT | 0.198
64 | AACAATCA | -0.147
65 | ATGAATTC | 0.0522
66 | AAACCCAA | 0.0205
67 | CAATCACA | -0.2
68 | ATCATAGG | 0.0574
69 | CCAAACTC | 0.0397
70 | AACGCTCG | -0.0142
71 | GATGGGGC | -0.023
72 | CGACCTAC | -0.109
73 | ACCCGCGC | 0.284
74 | GGCCTACA | 0.0947
75 | CCGTACAG | 0.0394

Row | Sequence | PBM E-score
76 | AAAATCGC | 0.0951
77 | CGGGGAAC | 0.341
78 | CTGTTCGC | 0.0595
79 | GTTACTAA | -0.176
80 | GCCCACCC | 0.151
81 | CTGGGGTA | -0.0474
82 | ATACCGTA | 0.0382
83 | GTCGGGTA | 0.109
84 | GGGTCTAA | -0.104
85 | CTTAGATA | -0.0726
86 | ATGGCCAT | 0.0373
87 | AATCGCCT | -0.0165
88 | GTTGTGAA | -0.19
89 | ACGGGAAT | 0.228
90 | CTATTGTC | 0.00153
91 | ACCAAGTA | -0.213
92 | TCCTCTCA | -0.195
93 | GATGGAAA | 0.0573
94 | ACGGCAGG | -0.064
95 | ATTTACTA | 0.0268
96 | GTATATGA | -0.0787
97 | CCGGATAA | 0.417
98 | GGGTTCAA | 0.0137
99 | ATTTTTCG | 0.125
100 | CTCTCCCA | -0.148

Row | Sequence | PBM E-score
101 | GTTGGAGA | -0.0658
102 | CACCGTTA | -0.064
103 | AGGCTAAA | -0.054
104 | GTCTATGA | -0.252
105 | CCGGCAAG | 0.363
106 | AAATATTG | 0.0609
107 | AAGGATCC | -0.0717
108 | AATGATTA | -0.134
109 | GGCGACAC | 0.156
110 | CGTCTCGA | -0.0808
111 | AGTTCATC | -0.018
112 | AAGGATGT | -0.176
113 | GGCGGGTA | 0.0566
114 | CAAAACAA | -0.327
115 | GACATTCC | -0.0427
116 | AGGCGCTA | -0.146
117 | CCGCCCAC | 0.217
118 | CACTCATG | -0.182
119 | ACGCACAG | -0.0483
120 | CTTGCACC | 0.00187
121 | AAGGGCTA | -0.124
122 | CGAGGATC | 0.045
123 | GGGTGACC | 0.0583
124 | CCTGGGAG | -0.0828
125 | AACGTTAC | -0.249

Row | Sequence | PBM E-score
126 | AACTATAC | -0.0813
127 | GCGATGCA | -0.0585
128 | GAAGATCA | -0.0645
129 | CGAACAGA | 0.0283
130 | ACCGACAT | 0.129
131 | GTCGCGAA | 0.0484
132 | ACCAAACC | 0.0834
133 | TATCCGAA | 0.371
134 | CCGGGTTC | 0.337
135 | GAGAGCCA | -0.285
136 | GCCAGGTA | -0.105
137 | CCAGGCTC | -0.135
138 | AAGATCAC | -0.147
139 | AATGGAGT | -0.128
140 | ACCTAGCT | -0.1
141 | AAAATCAT | -0.087
142 | ATGTCCTG | -0.0169
143 | ATTGGATG | -0.211
144 | AGGTCTTC | -0.228
145 | GATCTTTA | -0.151
146 | GACCACCA | -0.0382
147 | GTGCCCCA | -0.192
148 | AATTTCTA | 0.015
149 | AAACCCGG | 0.428
150 | TCAGACAA | -0.106

Row | Sequence | PBM E-score
151 | CAGATAAA | -0.142
152 | GGGCGATA | -0.0374
153 | AATATCGG | 0.395
154 | GTTGCCAA | -0.209
155 | CGGTCTGA | 0.143
156 | AATCGCAG | -0.0716
157 | ATTCTGGA | -0.0507
158 | CGAGGAAC | 0.188
159 | AGAAATGC | 0.086
160 | ACTATTAA | -0.125
161 | AAGCAGCA | -0.119
162 | ATTAGTCA | -0.00594
163 | CAGTTGGC | -0.169
164 | ACGCGATA | -0.00099
165 | GGCCATTA | 0.0135
166 | CGTGTACC | 0.0104
167 | CACATACG | -0.209
168 | CTGTTCAA | -0.156
169 | CACGCTTC | -0.0833
170 | CCCATTTC | -0.0594
171 | GTGCGCTA | -0.125
172 | AAATAGCT | -0.0174
